# From PubChem BioAssay AID2546 (National Center for Advancing Translational Sciences (NCATS), 2010)
# In all, about 310,000 compounds went through this assay and about 11,000 (3.5%) were called active. This list was built around the results that the source calls inconclusive (neither active nor inactive); the mix of calls is not that of the screen. Calls follow the shape of the dose curve; as a rule, active = well fitted inhibition curve with a large enough effect; inconclusive = small, poorly fitted or top-dose-only effect, or effect the other way; inactive = flat fitted curve, though single readings scatter. No potency is given beside an inconclusive call; the fits are too rough.
# Experiment: VP16 counterscreen qHTS for inhibitors of ROR gamma transcriptional activity;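 also: Gal4-VP16 expression switched on by copper sulfate through the metallothionein promoter; nearly all actives have a fitted effect of over 50% in size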
# Details: Drosophila S2 Gal4-VP16 UAS-luciferase, luminescence, 20 h; activity, negative = inhibition: at 53.6 µM (top of the series)
# % is scaled to controls: 0 for no effect and ±100 for the full control effect; potency is read from the fitted curve at half-maximal effect; tags tell the direction and shape of the fitted curve.
SMILES,Potency,"activity, negative = inhibition"
O=S(=O)(c1cccc2cnccc12)N1CCCNCC1,inactive,
CC(C)(C)CC(C)(C)NC(=S)NC1CCN(Cc2ccccc2)CC1,active: 10 µM,
CN(C)CCCN(C(=O)COc1ccc(Cl)cc1)c1nc2cc3c(cc2s1)OCO3,"inconclusive [inhibitor, single point]",
O=C(O)CCCCCN=C1CCc2ccccc2N1,,inactive: 2.89%
Cc1ccc(NC(=S)NCCc2ccccc2)nc1,active: 5.01 µM,
Cc1ccccc1-c1nc(CS(=O)CC(=O)NCCCN(C)c2ccccc2)c(C)o1 (stereo not drawn),,inactive: 2.61%
Cc1ccc(C(=O)Nc2ccc(C(=O)N/N=C/c3ccc(C)o3)cc2)cc1,"inconclusive [inhibitor, partial curve]",
O=[N+]([O-])c1ccc2c(c1)OCCOCCOCCOCCOCCOCCO2,"inconclusive [activator, single point]",
CCOC(=O)C(C)Oc1cccc2c(=O)n(CC(=O)N3CCCc4ccccc43)ccc12 (stereo not drawn),,inactive: -3.99%
CSc1ccc(/C=N/NC(=O)c2cccc(Cl)c2)cc1,"inconclusive [inhibitor, single point]",
O=C(NCCN1CCOCC1)C1CCN(c2ncnc3c2sc2cccc(F)c23)CC1,active: 14.1 µM,
O=C(COC(=O)CCC1CCCC1)Nc1ccc(Cl)cc1F,"inconclusive [activator, single point]",
CC(C)C[C@H]1COC(c2ccc(Br)cc2)=N1,,inactive: -0.247%
CC(=O)C1=C(C)NC(SCC(=O)c2ccccc2)=C(C#N)C1c1ccco1 (stereo not drawn),"inconclusive [activator, full curve, poor fit]",
C=CCN(C(=O)Nc1ccc(OC)cc1)c1nnc(-c2ccncc2)s1,,inactive: -10.5%
CCOc1ccc(S(=O)(=O)N2CCCC(C(=O)N3CCN(c4ccccc4)CC3)C2)cc1 (stereo not drawn),"inconclusive [inhibitor, single point]",
COC(=O)c1cccc(NC(=O)c2cc3sccc3n2C)c1,,inactive: 2%
S=C(NCc1ccc2c(c1)OCO2)Nc1ccc2nsnc2c1,"inconclusive [activator, single point]",
Cc1scc(C(=O)N/N=C/c2ccsc2)c1C,"inconclusive [inhibitor, single point]",
COc1cccc(-c2cc(C(=O)N3CCCCCC3)no2)c1,"inconclusive [inhibitor, single point]",
CN(C)c1ccc(C(=O)N/N=C/c2cc(Br)cc(Br)c2O)cc1,active: 5.62 µM,
Cc1cccc(C(=O)c2cnc3ccccc3c2-c2ccccc2)c1,active: 10 µM,
CCCCNC(=S)N1CCN(C(c2ccccc2)c2ccccc2)CC1,"inconclusive [inhibitor, single point]",
Cc1cc(C(=O)N/N=C/c2cccc([N+](=O)[O-])c2O)n[nH]1,"inconclusive [inhibitor, single point]",
FC(F)(F)c1cc(CN2CC[C@@]3(CCCNC3)C2)cc(C(F)(F)F)c1,,inactive: 5.65%
CCCOc1ccc(S(=O)(=O)N2CCOCC2)cc1[N+](=O)[O-],,inactive: -13%

SMILES,Potency,"activity, negative = inhibition"
COc1ccc(CCNC(=O)C2CC(c3ccccc3[N+](=O)[O-])=NO2)cc1 (stereo not drawn),"inconclusive [inhibitor, single point]",
FC(F)(F)Oc1ccc(NC(=S)NCc2ccccc2)cc1,active: 11.2 µM,
COCCN(C(=S)Nc1ccccc1C)C(C)c1cccs1 (stereo not drawn),"inconclusive [inhibitor, single point]",
O=C(Nc1nnc(-c2ccccn2)o1)c1cccc(Br)c1,active: 0.891 µM,
COc1ccc(C(=O)NN/C(=N/S(=O)(=O)c2ccc(C)cc2)c2ccccc2)cc1,"inconclusive [inhibitor, single point]",
Cn1nnnc1SCC(=O)Nc1nc(-c2ccccc2)c(-c2ccccc2)o1,"inconclusive [inhibitor, single point]",
Cc1cc(N/N=C/c2ccc([N+](=O)[O-])o2)nc2ccccc12,"inconclusive [inhibitor, single point]",
Cc1cc(C)nc(/N=C(\N)Nc2ccc(OCc3ccccc3)cc2)n1,"inconclusive [inhibitor, single point]",
Cc1scc(-c2n[nH]c(=S)n2C(C)c2ccccc2)c1C (stereo not drawn),active: 7.08 µM,
Cc1oc2cc(O)ccc2c(=O)c1Oc1ccc2ccccc2c1,"inconclusive [inhibitor, partial curve]",
COc1cc(C(=O)NC(=S)Nc2ccccc2N2CCCC2)cc(OC)c1OC,active: 3.98 µM,
Cc1nc([N+](=O)[O-])c(Sc2nc3ccc([N+](=O)[O-])cc3[nH]2)n1Cc1ccccc1,"inconclusive [inhibitor, single point]",
CCc1ccccc1NC(=O)C/C(C)=N/NC(=O)COc1ccccc1C,"inconclusive [inhibitor, single point]",
O=C(COC(=O)/C=C/c1ccccc1Cl)NCCNC(=O)COC(=O)/C=C/c1ccccc1Cl,"inconclusive [inhibitor, single point]",
NNc1nc2c(Cl)ccc(Cl)c2s1,active: 17.8 µM,
Cc1ccc(-c2n[nH]c(=S)n2/N=C/c2ccncc2)cc1,"inconclusive [inhibitor, single point]",
COc1ccc(CCn2c(C)cc(C(=O)CSc3nnnn3-c3ccccc3)c2C)cc1OC,"inconclusive [inhibitor, single point]",
C=CCNC(=S)N1CCC(C(=O)c2ccc(OC)cc2)CC1,,inactive: 2.21%
CN(CC(=O)Nc1cccc(C(F)(F)F)c1)Cc1ccccc1,"inconclusive [inhibitor, single point]",
Cc1cc(Br)ccc1OCCOCCN1CCCC1,,inactive: -0.0419%
Cc1ccc(CSCCNC(=O)CSCc2ccc([N+](=O)[O-])cc2)cc1,,inactive: -0.386%
CCOc1cc(C(=S)N2CCCCC2)ccc1OS(=O)(=O)c1ccc(Br)cc1,,inactive: -11.9%
CC1=CCC[C@@H]2[C@@](C)(CC/C(C)=C/C(=O)O)[C@H](C)CC[C@@]12C,,inactive: 0.467%
CCN(CC)S(=O)(=O)c1ccc(C)c(NC(=O)COc2ccc(Br)cc2Cl)c1,"inconclusive [inhibitor, single point]",
CCC(C)c1ccc(NC(=S)NCCn2cc(Br)cn2)cc1 (stereo not drawn),active: 11.2 µM,
CN(C)CCN(C(=O)/C=C/c1cccs1)c1nc2ccc(F)cc2s1,"inconclusive [inhibitor, single point]",

SMILES,Potency,"activity, negative = inhibition"
Cc1onc(-c2ccccc2)c1C(=O)NNC(=S)NC(=O)c1ccc(Br)cc1,active: 3.55 µM,
CCc1cccc(N=c2c([N+](=O)[O-])nn(-c3ccc4c(c3)OCCO4)n2O)c1,"inconclusive [inhibitor, single point]",
Cc1cc2c(C)cc(=O)oc2c2c1NCCC2,,inactive: 5.46%
Cc1cc(Cl)c(OCCN2C(=O)NC(C)(C)C2=O)c(Br)c1,,inactive: 4.19%
O=C(COc1cccnc1[N+](=O)[O-])NCc1ccccc1,,inactive: -0.784%
O=C(NNC(=O)c1cc(Br)ccc1Cl)c1csc(N2CCOCC2)n1,,inactive: -26.1%
CCn1c(CSCc2ccccc2)n[nH]c1=S,"inconclusive [inhibitor, single point]",
COc1ccc(/C=N/Nc2nccnc2Cl)cc1,"inconclusive [inhibitor, single point]",
O=c1[nH]nc(-c2cccs2)c2ccccc12,,inactive: 1.9%
COc1ccccc1C(=O)Nc1ccc2nc3n(c(=O)c2c1)CCCC3,,inactive: -6.14%
CCc1nnc(NC(=O)c2ccc3ncsc3c2)s1,"inconclusive [activator, single point]",
CCCN(CCC)c1nc(NC2CCN(C(=O)OCC)CC2)nc(OC)n1,"inconclusive [inhibitor, partial curve]",
CN(C)C(=O)c1sccc1Oc1ccc(F)cc1[N+](=O)[O-],"inconclusive [activator, single point]",
COCCn1c(=O)c(-c2ccc(F)cc2)nc2cnc(Oc3ccc(OC)cc3)nc21,"inconclusive [inhibitor, single point]",
CC(C)CC(=O)NC(=S)Nc1ccc(N2CCN(C(=O)c3cccs3)CC2)cc1,active: 6.31 µM,
O=S(=O)(NCc1cccnc1)c1ccc(Cl)s1,"inconclusive [inhibitor, single point]",
CCCc1nnc(NC(=S)Nc2ccccc2)s1,active: 0.631 µM,
COc1ccc(C(=O)N/N=C/c2ccc(OC)c(CN3CCCc4ccccc43)c2)cc1,"inconclusive [inhibitor, partial curve]",
CCn1c(-c2ccncc2)n[nH]c1=S,active: 11.2 µM,
CCC(=NCc1ccco1)c1c(C(F)(F)F)[nH]n(-c2nc3ccccc3s2)c1=O,,inactive: -16.6%
COc1ccc(/C=N/NC(=O)C2c3ccccc3-c3ccccc32)cc1,,inactive: -8.52%
CC(C)OCCCNC(=O)CCC(=O)NNc1nc2ccccc2c2nc(-c3ccccc3)nn12,"inconclusive [activator, single point]",
CC(C)NC(=O)c1ccc(CS(=O)(=O)c2ccc(Br)cc2)o1,,inactive: 4.83%
O=C1c2ccccc2C(=O)N1OS(=O)(=O)c1ccc(F)cc1,"inconclusive [inhibitor, single point]",
CCOC(=O)CSc1nc2c(c(=O)n1-c1ccc(OC)cc1)SCC2,"inconclusive [activator, single point]",
CC/C(=N\NC(=S)NC(C)C)c1ccc(OC)c(OC)c1,active: 10 µM,
